# Measured values: PubChem BioAssay (NCI)
# Where a structure was tested more than once in an assay, its records may differ in their call.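 In brief: 96-well plates, 48 h treatment, single concentration, percent growth endpoint.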 For part of its entries the source gives two or more results. They are shown here; other results are not. The source may hold further records. For part of these data: The screen tested this drug many times, at its own concentration, as given; each value is one run. Counts like (3×) give the number of equal values in this list. Some values that stand alone complete this part of the results. The source made the active and inactive calls. How the source made its calls: active means growth percent below 10; inactive means the rest.
# What was measured:
# [1] = system: SNB-19 CNS; assay: NCI-60 one-dose screen, 48 h (100 = growth as untreated, 0 = no growth, -100 = all killed)
# [2] = system: U251 CNS; assay: as above; details: 0.25 µM
compound,measurement,setting,value
COc1cccc2c1C(=O)c1c(O)c3c(c(O)c1C2=O)C[C@@](O)(C(=O)CO)C[C@@H]3OC1CC(N)C(O)C(C)O1 (stereo not given in full),growth,"[1]; 0.25 µM, runs of 2021","inactive: 12.8 (2×), 18.9, 15.3 (2×), 13.9 (2×), 14.1, 13.2 (2×), 13.6, 14.4, 14 (2×), 10.3, 10.2, 11, 11.8 (2×), 13.1 (2×), 20.9, 22.2, 17.3, 23.6, 27.9, 21.9, 21.3, 20.7 (2×), 16, 17.8, 18.3, 17.2, 18, 15.4, 14.9, 16.6 (2×), 20.2, 21.8, 11.6, 17.6%"
same,growth,"[1]; 0.25 µM, runs of 2022","active: 0.206, 0.296, -2.74, 8.28, 0.172, 9.65% and inactive: 10.8, 10.2, 10.3, 13.7, 16.1 (2×), 13.3, 21.5, 43, 37.6, 58.2, 44.9, 54.3, 13.1, 11.3, 12.8%"
same,growth,"[1]; 25 µM, runs of 1991","active: -24.1, -21.6, -18.4, -22.4, -24.8, -14.5, -19, -23.5, 4.08, -14.1, 1.14, 4.31, -18.8, 0.749, -25.2, -14, -7.55, -7.1, -19.6%"
same,growth,"[1]; 25 µM, runs of 1992","active: -14.7, -18 (2×), -23.8 (2×), -32.5 (2×), 2.44, -5.47, -29, -44.4, -24.8 (2×), -22.9 (2×), -9.31, -25.8, -22.8, -36.2, -15.1 (2×), -12.3 (2×), -4.22, 1.12, -4.31, -15.2, -26, -6.53, -38.7, -36.8 (2×), -28.6, -20.2, -26.6, 8.07, -11.4, -5.06, -20.3 (2×), -35.2, -4.43, -13.5, -5.45, -9.53, -5.91, -13.3, -16.9, -3.8, -34.3, -29.4, -17, -1.4, -3.86, -20.6 (2×), -23.5, -7.16, -12.6, -6.89, -24, -11.8 (2×), -35.7, -25.7, -27.1 (2×), -40.5, -23.9, -12.9, -36.6, -6.75, -10.8, -30.2, -28.5, -26.7, -24.9, -31.6, -21.2 (2×), -8.19, -18.7, -33.8, -14.1, -13.1, 0.472, -53.1, -9.64, -24.2, 4.7, -12.8, -30.5, -23.2, -30.9, -22.1, -5.41, -19.5, -15.4, -18.8, -28.9, -35.4, -33.7, -30.7, -17.9, 3.47, -29.3, 8.1, -18.4, -27, -33.9, -6.36, 0.855, -19.1, -31.2, -53.6, -16.1, -16.4, -24.6, -45.9, -41.8% and inactive: 23.6%, 106%"
same,growth,"[1]; 25 µM, runs of 1993","active: -9.72, -27.4 (2×), -29, -25.3, -19.9, -18.9, -25.8, -30.5 (2×), -39.8, -18.6 (2×), -17.6, -31.1, -8.29, 0.938, -34.8, -60.6, -19.2, -21.6, -30.8, -6.9, -9.8, -2.89, -34.4, -24.2, -34, -12.2, -23.7, -15.7, -39.7, -26.8, -10, -49.3, 5.06, -19.6, -22.1, -25.5, -11.8, -11.2, -14, -25.6, -41.6, -19.5, -23.2, 5.92, -30.9, -25.1%"
same,growth,"[1]; 25 µM, runs of 1994","active: -35.6, -30.2, -9.42, -20.6 (2×), -18, -33.5, -17.9, 1.94, -12.7, -51.1, -33.6, -0.412, -21.1, -28.5, -0.738, -7.95, -17.3, -7.08, -46.3, -32.6, -33.9, -40.6, -32.5, -34.2, -40.4, -34.1, -35.3, 0.834, -37.7, -26.5%"
same,growth,"[1]; 25 µM, runs of 1995","active: -10.3, -29.7, -9.35, -27.9, -13.2, 1.49, -7.71, -13.3, -17.9, -10.4, -17.8 (2×), -30.7, -5.24, -24.6, -8.82, -11.1, -12.1, -20.2, -18.8, -43.2, -20.6, -32, -20, -18.6, 0.469, -24.4, -19.3, -40.8, -30.1, -35.7, -3.21, -5.79, 7.78, -15, -2.84% and inactive: 23.7%"
same,growth,"[1]; 25 µM, runs of 1996","active: 1.67, -26.8, 0.917, 0.144, -14.8, -14, -5.76, 3.62, -7.49, -28.2, -25.2, -39.4, 1.68, -31.4, -13.7, -11.2, -53.8, -44.7, 6.64, -22.3, -20.6, -18.3, -19.3, 9.25, -13, -28, -22.4 (2×), -22.9, 7.47, 1.4, -25.8, -19.7, -20.3, -11.1 (3×), -29.1 (2×), -13.4, -48.6, -37.7, -13.5, -20.1, -4.84, -8.98, -32.8, -15.8, -25.5, -21.1, 5.82, -13.8, -37.1% and inactive: 10.5, 16.6, 64, 26.3, 12.8%"
same,growth,"[1]; 25 µM, runs of 1997","active: 5.98, -27.6 (2×), -8.47, 6.62, -10.4, -40.3, -18.3 (2×), -40.6, -12.4, -15.1 (2×), 7.47, -34.3, -7.63, -5.89, -5.88, -28, -24.4, -49.3, 7.78, -19, -20.7, -30.3, -6.8, -19.5, -10.8, -21.2, -30.8, 3.19, -13.9, -23.9, -20.1, -11.2, 7.61, -21.3, -10.9, -15.8, -23.1, -11.1, -22.1, -36.4% and inactive: 10.3%"
same,growth,"[1]; 25 µM, runs of 1998","active: -11.4, -15.1, -16.8 (2×), -54.1, -7.66, -28.5, -30.1, -22.2, -40.7, -55.5, -33.1, -49.6, -20.7, -52.3, -31, -29, -33.2, -40.1, -29.6, 9.07, -41.4, -7.18, -20.4, -42.7, -27.1%"
same,growth,"[1]; 25 µM, runs of 1999","active: -20.1, -7.31, -56.1, -9.82, -20.8, -100 (3×), 3.72, -62.9, -69, 0.187, 8.19, -34.9, -98.4, -54.5, -68.5% and inactive: 27.2%"
same,growth,"[1]; 25 µM, runs of 2000","active: 4.39, -100, -6.87, -50.4%"
same,growth,[2]; runs of 2006,inactive: 14.3%
same,growth,[2]; runs of 2007,"inactive: 15.6 (2×), 24.4, 15.2, 19.4, 18.7, 14.1, 16.4, 33.3, 15.3 (2×), 17.5, 13.5, 17.1 (2×), 13, 24.3, 20.5, 19.8, 16.9 (2×), 21.1, 21.4, 18, 15.1, 26.2, 14.9 (2×), 24.9, 10.8, 16.7, 22.2, 22.5% and active: 1.71%"
same,growth,[2]; runs of 2008,"inactive: 21, 18.3, 15.3, 17.6, 19.4, 15.7, 12.8, 15.1, 25.9, 18.4, 16.3, 11.3, 12, 11.1, 12.4, 93.6, 13.8, 10.5, 10.2, 11.8, 19.7, 19.8, 13, 15.5, 10.3, 20.9, 15.2% and active: -14, 7.18, 3.31, -2.46, -9.54, 3.04, 3.18, 6.87, 8.15, 0.151, 8.02 (2×), -10.9, -0.736, -0.0936, 8.46, 9.95, -18, 9.7%"
